Experimental data published in the supplement of paper PMC11741623.
The other results are listed elsewhere or left out. Interaction screen of human proteins with wild-type SARS-CoV-2 proteins by split-DHFR complementation in yeast, 1 µg/mL methotrexate. Value = fitness of the pair (three or more lineages) minus that of the viral protein without a human partner, on a scale set by negative (0) and fused positive (1) controls, mean of up to three cultures; higher = more likely to interact. Active = false discovery rate below 0.05 (one-sided t-test) in at least one culture. Nearly all pairs are not hits, and differences among them are mostly noise (correlation between cultures about 0.3); most hits were seen in one culture only. Human sequences are the Swiss-Prot entries looked up by gene name; the clone may be another isoform. NSP2 values were corrected by the authors for a growth advantage. Listed are human proteins with a hit and a random twelfth of the others.

B1: IGSF6, O95976 (protein)
chain: MGTASRSNIARHLQTNLILFCVGAVGACTLSVTQPWYLEVDYTHEAVTIKCTFSATGCPSEQPTCLWFRYGAHQPENLCLDGCKSEADKFTVREALKENQVSLTVNRVTSNDSAIYICGIAFPSVPEARAKQTGGGTTLVVREIKLLSKELRSFLTALVSLLSVYVTGVCVAFILLSKSKSNPLRNKEIKEDSQKKKSARRIFQEIAQELYHKRHVETNQQSEKDNNTYENRRVLSNYERP
B2: SAMSN1, Q9NSI8 (protein)
chain: MLKRKPSNVSEKEKHQKPKRSSSFGNFDRFRNNSLSKPDDSTEAHEGDPTNGSGEQSKTSNNGGGLGKKMRAISWTMKKKVGKKYIKALSEEKDEEDGENAHPYRNSDPVIGTHTEKVSLKASDSMDSLYSGQSSSSGITSCSDGTSNRDSFRLDDDGPYSGPFCGRARVHTDFTPSPYDTDSLKIKKGDIIDIICKTPMGMWTGMLNNKVGNFKFIYVDVISEEEAAPKKIKANRRSNSKKSKTLQEFLERIHLQEYTSTLLLNGYETLEDLKDIKESHLIELNIENPDDRRRLLSAAENFLEEEIIQEQENEPEPLSLSSDISLNKSQLDDCPRDSGCYISSGNSDNGKEDLESENLSDMVHKIIITEPSD
B3: ALOX15, P16050 (protein)
chain: MGLYRIRVSTGASLYAGSNNQVQLWLVGQHGEAALGKRLWPARGKETELKVEVPEYLGPLLFVKLRKRHLLKDDAWFCNWISVQGPGAGDEVRFPCYRWVEGNGVLSLPEGTGRTVGEDPQGLFQKHREEELEERRKLYRWGNWKDGLILNMAGAKLYDLPVDERFLEDKRVDFEVSLAKGLADLAIKDSLNVLTCWKDLDDFNRIFWCGQSKLAERVRDSWKEDALFGYQFLNGANPVVLRRSAHLPARLVFPPGMEELQAQLEKELEGGTLFEADFSLLDGIKANVILCSQQHLAAPLVMLKLQPDGKLLPMVIQLQLPRTGSPPPPLFLPTDPPMAWLLAKCWVRSSDFQLHELQSHLLRGHLMAEVIVVATMRCLPSIHPIFKLIIPHLRYTLEINVRARTGLVSDMGIFDQIMSTGGGGHVQLLKQAGAFLTYSSFCPPDDLADRGLLGVKSSFYAQDALRLWEIIYRYVEGIVSLHYKTDVAVKDDPELQTWCREITEIGLQGAQDRGFPVSLQARDQVCHFVTMCIFTCTGQHASVHLGQLDWYSWVPNAPCTMRLPPPTTKDATLETVMATLPNFHQASLQMSITWQLGRRQPVMVAVGQHEEEYFSGPEPKAVLKKFREELAALDKEIEIRNAKLDMPYEYLRPSVVENSVAI
B4: PRSS50, Q9UI38 (protein)
chain: MGRWCQTVARGQRPRTSAPSRAGALLLLLLLLRSAGCWGAGEAPGALSTADPADQSVQCVPKATCPSSRPRLLWQTPTTQTLPSTTMETQFPVSEGKVDPYRSCGFSYEQDPTLRDPEAVARRWPWMVSVRANGTHICAGTIIASQWVLTVAHCLIWRDVIYSVRVGSPWIDQMTQTASDVPVLQVIMHSRYRAQRFWSWVGQANDIGLLKLKQELKYSNYVRPICLPGTDYVLKDHSRCTVTGWGLSKADGMWPQFRTIQEKEVIILNNKECDNFYHNFTKIPTLVQIIKSQMMCAEDTHREKFCYELTGEPLVCSMEGTWYLVGLVSWGAGCQKSEAPPIYLQVSSYQHWIWDCLNGQALALPAPSRTLLLALPLPLSLLAAL
B5: PCGF6, Q9BYE7 (protein)
chain: MEGVAVVTAGSVGAAKTEGAAALPPPPPVSPPALTPAPAAGEEGPAPLSETGAPGCSGSRPPELEPERSLGRFRGRFEDEDEELEEEEELEEEEEEEEEDMSHFSLRLEGGRQDSEDEEERLINLSELTPYILCSICKGYLIDATTITECLHTFCKSCIVRHFYYSNRCPKCNIVVHQTQPLYNIRLDRQLQDIVYKLVINLEEREKKQMHDFYKERGLEVPKPAVPQPVPSSKGRSKKVLESVFRIPPELDMSLLLEFIGANEGTGHFKPLEKKFVRVSGEATIGHVEKFLRRKMGLDPACQVDIICGDHLLEQYQTLREIRRAIGDAAMQDGLLVLHYGLVVSPLKIT
B6: DGAT2, Q96PD7 (protein)
chain: MKTLIAAYSGVLRGERQAEADRSQRSHGGPALSREGSGRWGTGSSILSALQDLFSVTWLNRSKVEKQLQVISVLQWVLSFLVLGVACSAILMYIFCTDCWLIAVLYFTWLVFDWNTPKKGGRRSQWVRNWAVWRYFRDYFPIQLVKTHNLLTTRNYIFGYHPHGIMGLGAFCNFSTEATEVSKKFPGIRPYLATLAGNFRMPVLREYLMSGGICPVSRDTIDYLLSKNGSGNAIIIVVGGAAESLSSMPGKNAVTLRNRKGFVKLALRHGADLVPIYSFGENEVYKQVIFEEGSWGRWVQKKFQKYIGFAPCIFHGRGLFSSDTWGLVPYSKPITTVVGEPITIPKLEHPTQQDIDLYHTMYMEALVKLFDKHKTKFGLPETEVLEVN
B7: ARMCX5, Q6P1M9 (protein)
chain: MVDSGTEARARGKAEAGLQDGISGPATARVNGKTQAEAVAEAELKTESVTQAKAGDGAMTRTHTVTYREAMAVTREVIKVEDTTKTRVMVETKTKPLAERSIVPQTKSKAMPMSRVSTVTKSEVKVVAVIEANIRSYAKSHDKANTGSRPDRREETSIGMKSSDEDEENICSWFWTGEEPSVGSWFWPEEETSLQVYKPLPKIQEKPKPTHKPTLTIKQKVIAWSRARYIVLVPVEGGEQSLPPEGNWTLVETLIETPLGIRPLTKIPPYHGPYYQTLAEIKKQIRQREKYGPNPKACHCKSRGFSLEPKEFDKLVALLKLTKDPFIHEIATMIMGISPAYPFTQDIIHDVGITVMIENLVNNPNVKEHPGALSMVDDSSESSEEPKSGESYIHQVCKGIISCPLNSPVQLAGLKLLGHLSIKFEDHYVITSYIPDFLTLLNKGSVKTKFYVLKVFSCLSKNHANTRELISAKVLSSLVAPFNKNESKANILNIIEIFENINFQFKTKAKLFTKEKFTKSELISIFQEAKQFGQKLQDLAEHSDPEVRDKVIRLILKL
B8: BEX5, Q5H9J7 (protein)
chain: MENVPKENKVVEKAPVQNEAPALGGGEYQEPGGNVKGVWAPPAPGFGEDVPNRLVDNIDMIDGDGDDMERFMEEMRELRRKIRELQLRYSLRILIGDPPHHDHHDEFCLMP
B9: EPHA1, P21709 (protein)
chain: MERRWPLGLGLVLLLCAPLPPGARAKEVTLMDTSKAQGELGWLLDPPKDGWSEQQQILNGTPLYMYQDCPMQGRRDTDHWLRSNWIYRGEEASRVHVELQFTVRDCKSFPGGAGPLGCKETFNLLYMESDQDVGIQLRRPLFQKVTTVAADQSFTIRDLVSGSVKLNVERCSLGRLTRRGLYLAFHNPGACVALVSVRVFYQRCPETLNGLAQFPDTLPGPAGLVEVAGTCLPHARASPRPSGAPRMHCSPDGEWLVPVGRCHCEPGYEEGGSGEACVACPSGSYRMDMDTPHCLTCPQQSTAESEGATICTCESGHYRAPGEGPQVACTGPPSAPRNLSFSASGTQLSLRWEPPADTGGRQDVRYSVRCSQCQGTAQDGGPCQPCGVGVHFSPGARGLTTPAVHVNGLEPYANYTFNVEAQNGVSGLGSSGHASTSVSISMGHAESLSGLSLRLVKKEPRQLELTWAGSRPRSPGANLTYELHVLNQDEERYQMVLEPRVLLTELQPDTTYIVRVRMLTPLGPGPFSPDHEFRTSPPVSRGLTGGEIVAVIFGLLLGAALLLGILVFRSRRAQRQRQQRQRDRATDVDREDKLWLKPYVDLQAYEDPAQGALDFTRELDPAWLMVDTVIGEGEFGEVYRGTLRLPSQDCKTVAIKTLKDTSPGGQWWNFLREATIMGQFSHPHILHLEGVVTKRKPIMIITEFMENGALDAFLREREDQLVPGQLVAMLQGIASGMNYLSNHNYVHRDLAARNILVNQNLCCKVSDFGLTRLLDDFDGTYETQGGKIPIRWTAPEAIAHRIFTTASDVWSFGIVMWEVLSFGDKPYGEMSNQEVMKSIEDGYRLPPPVDCPAPLYELMKNCWAYDRARRPHFQKLQAHLEQLLANPHSLRTIANFDPRMTLRLPSLSGSDGIPYRTVSEWLESIRMKRYILHFHSAGLDTMECVLELTAEDLTQMGITLPGHQKRILCSIQGFKD
B10: LRP2BP, Q9P2M1 (protein)
chain: MKLTSEKLPKNPFYASVSQYAAKNQKFFQWKKEKTDYTHANLVDKALQLLKERILKGDTLAYFLRGQLYFEEGWYEEALEQFEEIKEKDHQATYQLGVMYYDGLGTTLDAEKGVDYMKKILDSPCPKARHLKFAAAYNLGRAYYEGKGVKRSNEEAERLWLIAADNGNPKASVKAQSMLGLYYSTKEPKELEKAFYWHSEACGNGNLESQGALGLMYLYGQGIRQDTEAALQCLREAAERGNVYAQGNLVEYYYKMKFFTKCVAFSKRIADYDEVHDIPMIAQVTDCLPEFIGRGMAMASFYHARCLQLGLGITRDETTAKHYYSKACRLNPALADELHSLLIRQRI
B11: PPIL1, Q9Y3C6 (protein)
chain: MAAIPPDSWQPPNVYLETSMGIIVLELYWKHAPKTCKNFAELARRGYYNGTKFHRIIKDFMIQGGDPTGTGRGGASIYGKQFEDELHPDLKFTGAGILAMANAGPDTNGSQFFVTLAPTQWLDGKHTIFGRVCQGIGMVNRVGMVETNSQDRPVDDVKIIKAYPSG
B12: SLC24A5, Q71RS6 (protein)
chain: MQTKGGQTWARRALLLGILWATAHLPLSGTSLPQRLPRATGNSTQCVISPSSEFPEGFFTRQERRDGGIIIYFLIIVYMFMAISIVCDEYFLPSLEIISESLGLSQDVAGTTFMAAGSSAPELVTAFLGVFITKGDIGISTILGSAIYNLLGICAACGLLSNTVSTLSCWPLFRDCAAYTISAAAVLGIIYDNQVYWYEGALLLLIYGLYVLVLCFDIKINQYIIKKCSPCCACLAKAMERSEQQPLMGWEDEGQPFIRRQSRTDSGIFYEDSGYSQLSISLHGLSQVSEDPPSVFNMPEADLKRIFWVLSLPIITLLFLTTPDCRKKFWKNYFVITFFMSAIWISAFTYILVWMVTITGETLEIPDTVMGLTLLAAGTSIPDTIASVLVARKGKGDMAMSNIVGSNVFDMLCLGIPWFIKTAFINGSAPAEVNSRGLTYITISLNISIIFLFLAVHFNGWKLDRKLGIVCLLSYLGLATLSVLYELGIIGNNKIRGCGG

Molecular target: SARS-CoV-2 NSP13
Experiment: yeast fitness gain over the viral ORF with no human partner (scaled fitness); higher = more likely to interact
Procedure: (§1)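 Split mouse DHFR complementation in pooled diploid yeast: human ORFeome clones carry one fragment and viral ORFs the other; barcoded lineages compete in 1 µg/mL methotrexate and fitness is read by barcode sequencing in up to three cultures.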

Binder	yeast fitness gain
B1	inactive: 0.0151
B2	inactive: 0.102
B3	inactive: 0.0328
B4	inactive: 0.0301
B5	inactive: -0.177
B6	inactive: -0.143
B7	inactive: -0.119
B8	inactive: -0.0379
B9	inactive: -0.133
B10	inactive: -0.194
B11	inactive: -0.333
B12	inactive: -0.214

Molecular target: SARS-CoV-2 NSP2
Experiment: as above
Procedure: as §1

Binder	yeast fitness gain
B1	inactive: -0.0628
B2	inactive: 0.0182
B5	inactive: -0.478
B6	inactive: -0.148
B8	inactive: -0.343
B11	inactive: -0.282

Molecular target: SARS-CoV-2 ORF10
Experiment: as above
Procedure: as §1

Binder	yeast fitness gain
B1	inactive: 0.00999
B11	inactive: -0.131

Molecular target: SARS-CoV-2 ORF3B
Experiment: as above
Procedure: as §1

Binder	yeast fitness gain
B1	inactive: 0.0466
B2	inactive: 0.205
B9	inactive: -0.0994
B11	inactive: -0.0615

Molecular target: SARS-CoV-2 ORF6
Experiment: as above
Procedure: as §1

Binder	yeast fitness gain
B1	inactive: -0.0192
B8	inactive: 0.0312
B11	inactive: 0.0636

Molecular target: SARS-CoV-2 ORF7B
Experiment: as above
Procedure: as §1

Binder	yeast fitness gain
B1	inactive: -0.143
B7	inactive: 0.0704
B11	inactive: -0.205

Molecular target: SARS-CoV-2 ORF9B
Experiment: as above
Procedure: as §1

Binder	yeast fitness gain
B2	inactive: -0.307
B4	inactive: -0.293
B7	inactive: 0.0259
B8	inactive: 0.0496
B9	inactive: -0.0773
B11	inactive: -0.0581
B12	inactive: 0.0097

Molecular target: SARS-CoV-2 ORF8
Experiment: as above
Procedure: as §1

Binder	yeast fitness gain
B5	inactive: -0.107
B11	inactive: -0.0943
B12	inactive: -0.000582

Molecular target: SARS-CoV-2 NSP15
Experiment: as above
Procedure: as §1

Binder	yeast fitness gain
B7	inactive: -0.126

Molecular target: SARS-CoV-2 NSP5
Experiment: as above
Procedure: as §1

Binder	yeast fitness gain
B8	inactive: -0.0219
